From paper doi:10.1101/2020.06.24.169185 (bioRxiv, 2020)

Molecular target: T1, mCherry-Nanog (UniProt Q80Z64 1-305)
T1 sequence (looked up): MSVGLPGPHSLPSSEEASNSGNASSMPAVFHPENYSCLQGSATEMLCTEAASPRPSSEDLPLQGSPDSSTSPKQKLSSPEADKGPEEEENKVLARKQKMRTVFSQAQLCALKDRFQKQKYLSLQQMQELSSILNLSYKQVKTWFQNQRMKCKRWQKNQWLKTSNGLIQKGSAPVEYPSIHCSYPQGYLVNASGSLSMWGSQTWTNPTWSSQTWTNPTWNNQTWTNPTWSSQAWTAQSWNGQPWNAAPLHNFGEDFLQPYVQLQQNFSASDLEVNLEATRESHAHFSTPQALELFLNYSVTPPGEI
Assay: fluorescence cross-correlation spectroscopy

complex %: 12.5%
B1: GFP-Oct4 (natural protein)
chain: not shown
